Experimental data from PubChem BioAssay AID686970 (National Center for Advancing Translational Sciences (NCATS), 2013).
About 6,000 (1.7%) of roughly 360,000 compounds were called active. This list was built around the results that the source calls inconclusive (neither active nor inactive); the mix of calls is not that of the screen. The call rests on the fitted dose curve; in most records, active means well fitted cell-killing curve with a large enough effect; inconclusive means small, poorly fitted or top-dose-only effect, or effect the other way; inactive means flat fitted curve, though single readings scatter. Potencies of inconclusive entries are left out as doubtful fits.
Potency means the concentration at half of the fitted maximal effect; tags describe the fitted curve by direction and shape.

Experiment: qHTS for induction of synthetic lethality in tumor cells producing 2HG: qHTS for the HT-1080-NT fibrosarcoma cell line;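 further: NT is the 2HG producing partner of a matched IDH1 knockdown line; nearly all actives have a fitted effect of over 55% in size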;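 on activity, negative = less viability: 0% = DMSO-treated cells and -100% = media-only wells without cells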
Settings: HT-1080-NT fibrosarcoma viability, CellTiter-Glo ATP luminescence, 48 h; activity, negative = less viability: at 46.1 µM (top of the series) unless noted
How it was run: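 Viability by CellTiter-Glo luminescence after 48 h compound exposure at 37C of HT-1080-NT cells (750/well, RPMI, 5% FBS). % activity scaled between DMSO wells and medium-only wells, then curve-fitted and categorized by curve class.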
With `C#CCOCCOCCOCCNc1nc(N2CCN(C(=O)[C@H]([C@@H](C)CC)n3cc([C@@H](N)CC(C)C)nn3)CC2)nc(N2CCN(C(=O)[C@H](CCCCN)n3cc([C@@H](N)CO)nn3)CC2)n1` the Potency was “inactive”. With `COc1ccc(-c2coc3cc(O[C@@H]4O[C@H](CO)[C@@H](O)[C@H](O)[C@H]4O)ccc3c2=O)cc1` the Potency was “inactive”. In the case of `NC(Cc1ccc(Cl)cc1)c1csc(NC(=O)NCCc2ccccc2)n1` (centres undefined), the Potency is reported as active: 16.4 µM. With `CN(C(=O)CC1C(=O)NCCN1Cc1c(F)cccc1Cl)C1CCOCC1` (centres undefined) the activity, negative = less viability was inconclusive: -4.08%. In the case of `Clc1ccc(-c2nnnn2-c2ccc(Cl)cc2)cc1`, the Potency is reported as inconclusive [rising, single point]. In the case of `Cc1ccc(OCC(=O)NCCCNC(=O)c2cccnc2)cc1C`, the Potency is reported as inconclusive [cytotoxic, single point]. With `COc1cc(/C=C(\C#N)c2nc3ccccc3[nH]2)ccc1Oc1ccc([N+](=O)[O-])cn1` the Potency was inconclusive [cytotoxic, single point]. In the case of `CS(=O)(=O)c1ccc(S(=O)CC(=O)Oc2ccc(Cl)cc2)c([N+](=O)[O-])c1` (centres undefined), the Potency is reported as active: 23.1 µM. In the case of `CCOc1ccccc1-c1nc(-c2ccc(NC(=O)Cc3ccc(OC)cc3)cc2)no1`, the Potency is reported as inconclusive [cytotoxic, partial curve]. With `COc1c(C)cc(C(=O)C2CCCN(C(=O)c3cc(C)n(C)n3)C2)cc1C` (centres undefined) the Potency was “inactive”. In the case of `CCOC(=O)c1ccccc1NC(=O)c1cc(S(=O)(=O)N2CCOCC2)ccc1F`, the Potency is reported as “inactive”. For `CCN1CCN(CCCOc2ccc(-c3ccccc3)cc2)CC1`, the Potency was inconclusive [cytotoxic, single point]. With `COc1ccccc1OCCOc1ccc(/C=N/n2cnnc2)cc1` the Potency was inconclusive [cytotoxic, single point]. For `OCCCNc1nc(-c2ccc(Cl)cc2)nnc1-c1ccc(Br)cc1`, the Potency was inconclusive [cytotoxic, single point]. In the case of `COc1cc(/C=N/NC(=O)CC23CC4CC(CC(C4)C2)C3)cc(Br)c1OCC(=O)N(C)C`, the Potency is reported as inconclusive [cytotoxic, single point]. With `Cc1ccc(C(C)C)c(OCc2nn(CC(=O)c3ccc(OC(F)F)cc3)c3[n+]2CCCCC3)c1` the Potency was active: 14.6 µM. With `COc1ncccc1C(=O)N1CCCC(C(=O)Nc2cccc(-c3ccc(F)cc3)c2)C1` (centres undefined) the Potency was “inactive”. For `OC[C@H]1OC(O)[C@H](O)[C@@H](O)[C@H]1O` (some centres undefined), the Potency was inconclusive [rising, single point]. In the case of `Cc1ccc(NC2=CC(=O)CC(c3ccccc3)C2)cc1` (centres undefined), the Potency is reported as active: 2.91 µM. With `CCOCC(=O)NC1CCc2cc(OC)c(OC)c(OC)c2-c2ccc(SC)c(=O)cc21` (centres undefined) the Potency was active: 0.0116 µM. In the case of `COc1ccc(/C=C/C(=O)ONC2=NCCCCC2)cc1OC`, the Potency is reported as “inactive”. With `Oc1ccccc1-c1n[nH]c(-c2ccccc2O)n1` the Potency was inconclusive [cytotoxic, single point]. In the case of `O=C1C=Cc2cccc3ccc(O)c1c23`, the Potency is reported as inconclusive [cytotoxic, full curve, poor fit]. For `CCOC(=O)[C@]12CCCC=C1N(CCC1=CCCCC1)C(=O)[C@H](CC(=O)NCC13CC4CC(CC(C4)C1)C3)C2`, the Potency was inconclusive [cytotoxic, partial curve]. With `O=C1CCC(=O)N(O)CCCCCNC(=O)CCC(=O)N(O)CCCCCNC(=O)CCC(=O)N(O)CCCCCN1` the Potency was inconclusive [cytotoxic, single point]. For `N#CCCN1CCN(Cc2cc(-c3ccccc3)ccc2O)CC1`, the Potency was inconclusive [rising, partial curve]. With `O=C(NCc1cccc(F)c1)c1[nH]c(C(F)(F)F)nc1-c1ccccc1` the activity, negative = less viability was inconclusive: -33.3% [cytotoxic]. In the case of `CCn1c(CCn2c3ccccc3c3ccccc32)n[nH]c1=S`, the Potency is reported as “inactive”. In the case of `Cc1ccc(C(=O)NCCCNC(=O)Cc2ccccc2)cn1`, the Potency is reported as “inactive”. In the case of `Cc1cc(C(C)(C)C)oc1C(=O)N(CC(=O)NC1CCCC1)c1c(C)cccc1C`, the Potency is reported as inconclusive [cytotoxic, single point]. In the case of `C/C(=N\NC(=S)NCCc1ccccc1)c1ccc(C#N)cc1`, the Potency is reported as active: 6.31 µM. In the case of `O=C(CN1C(=O)/C(=C\c2ccccc2Cl)Oc2ccccc21)NCc1cccnc1`, the Potency is reported as inconclusive [cytotoxic, single point]. In the case of `O=C1CCC(OCc2ccccc2)CCN1CC[C@@H](Sc1ccccc1)c1ccccc1` (some centres undefined), the Potency is reported as inconclusive [cytotoxic, single point]. For `Cc1ccccc1-c1nnc(SCC(=O)Nc2cccnc2Cl)o1`, the Potency was active: 18.4 µM. In the case of `COc1ccc(NS(=O)(=O)c2cc(C)ccc2NC(=O)c2cc(C)oc2C)cc1`, the Potency is reported as active: 0.58 µM. With `O=C(Nc1ccc(Cl)cc1)NC1CCCc2ccccc21` (centres undefined) the Potency was inconclusive [cytotoxic, single point]. In the case of `Cc1ccccc1OCC(=O)Nc1ccc(N2CCN(C)CC2)c(Cl)c1`, the Potency is reported as inconclusive [cytotoxic, single point]. In the case of `O=[N+]([O-])c1cc(C(F)(F)F)ccc1NCCc1c[nH]c2ccccc12`, the Potency is reported as “inactive”. With `O=C(NCc1ccncc1)c1ccccc1Nc1ccc(SC(F)F)cc1` the Potency was inconclusive [cytotoxic, partial curve]. In the case of `O=C1OCCC1Sc1nnc(-c2cccc(Br)c2)o1` (centres undefined), the Potency is reported as “inactive”. In the case of `COc1ccc(N(C(=O)c2snc(C(N)=O)c2N)C(C(=O)NC2CCCCC2)c2ccc(C)o2)cc1` (centres undefined), the Potency is reported as inconclusive [cytotoxic, single point]. In the case of `Cc1cc(-c2cn3ccccc3n2)c(C)n1-c1ccccc1`, the Potency is reported as inconclusive [cytotoxic, single point]. In the case of `CCOC(=O)C1CCCN(C(=O)c2cc(-c3ccc(F)cc3)nc3ccccc23)C1` (centres undefined), the Potency is reported as inconclusive [cytotoxic, partial curve, poor fit]. With `COc1ccc(NC(=O)c2cc(-c3sc(NC(=O)c4ccccc4)nc3C)n(Cc3ccccc3)n2)cc1` the Potency was “inactive”. In the case of `O=C(CN(Cc1ccc(F)cc1)C(=O)CCC(=O)Nc1ccccn1)NCc1ccc(F)cc1`, the Potency is reported as “inactive”. With `Clc1ccc(-c2nnc(C3CCCCC3)o2)cc1` the Potency was inconclusive [rising, partial curve]. In the case of `Cc1ccc(OCCNC(=O)C(=O)NCc2ccco2)cc1`, the Potency is reported as inconclusive [cytotoxic, full curve]. In the case of `O=C(NCc1ccccc1)C(c1ccccc1)N(Cc1ccc2c(c1)OCO2)C(=O)Cc1cccs1` (centres undefined), the Potency is reported as “inactive”. With `Cc1ccc(Cn2nnc3c(=O)[nH]c(C4CCCN(C(=O)Nc5ccc(F)cc5F)C4)nc32)cc1` (centres undefined) the Potency was inconclusive [cytotoxic, single point]. For `Nc1nn2cc(-c3ccccc3)nc2c2ccccc12`, the Potency was inconclusive [cytotoxic, single point]. In the case of `Cc1ccc(-c2cc(C(=O)Nc3ccc(S(=O)(=O)N4CC(C)OC(C)C4)cc3)[nH]n2)c(O)c1` (centres undefined), the activity, negative = less viability is reported as inconclusive: -30.2% [cytotoxic]. With `COc1ccccc1C1CCN(c2cc(O)ccc2[N+](=O)[O-])CC1` the Potency was inconclusive [cytotoxic, single point]. In the case of `COc1ccc(-c2coc3c(C(=O)Nc4ccc(OC)nc4)cccc23)c(C)c1`, the Potency is reported as inconclusive [cytotoxic, single point]. For `CN1c2ccc(C=O)c3c(C=O)ccc(c23)N(C)C1(C)C`, the Potency was inconclusive [cytotoxic, partial curve]. In the case of `CC(C)(O)C#Cc1ccc(C(=O)Nc2ccc3c(c2)OCO3)s1`, the Potency is reported as inconclusive [cytotoxic, full curve]. In the case of `CCn1cc([N+](=O)[O-])c(C(=O)N2N=C(c3cccc4ccccc34)CC2c2ccccc2O)n1` (centres undefined), the Potency is reported as inconclusive [cytotoxic, single point]. In the case of `CCOc1ccc(N(CC(=O)N/N=C/c2cccnc2)S(C)(=O)=O)cc1`, the Potency is reported as “inactive”. For `O=C(CSC1CN(C(c2ccccc2)c2ccccc2)C1)N/N=C/c1ccccc1`, the Potency was inconclusive [cytotoxic, single point]. For `Cc1c(-c2nc(-c3ccc(C(C)(C)C)cc3)no2)n(C)oc1=O`, the Potency was inconclusive [rising, partial curve]. With `COc1ccc(C(=O)Nc2cccc(-c3nnc(-c4ccco4)o3)c2)cc1` the Potency was inconclusive [cytotoxic, single point]. In the case of `COc1ccc(S(=O)(=O)N2CCOCC2)cc1NC(=O)CCNC(=O)c1ccc(Cl)cc1`, the Potency is reported as active: 20.6 µM. With `CCCc1c(-c2cccc(Cl)c2)ncn1CCc1ccccc1OC` the Potency was inconclusive [cytotoxic, single point]. For `O=C(CCC1CCCN(Cc2cccc3c2OCO3)C1)NCc1ccc(F)c(F)c1` (centres undefined), the Potency was “inactive”. With `CCOC(=O)c1c(C2COc3ccccc3O2)csc1NC(=O)c1ccco1` (centres undefined) the Potency was “inactive”. With `CC(=O)Nc1ccc(-c2ccnc3c2CC(C)(C(=O)NCC2CCOCC2)O3)cc1` (centres undefined) the Potency was inconclusive [cytotoxic, single point]. In the case of `Clc1cccc(CSc2nnc(-c3c[nH]c4ccccc34)o2)c1`, the Potency is reported as inconclusive [cytotoxic, single point]. With `O=C(N=Nc1c(O)[nH]c2ccc(Br)cc12)c1ccccc1-n1cccc1` the Potency was active: 2.82 µM. For `COc1ccc(/C=N/NC(=O)c2ccc(-n3cnnn3)cc2)cc1`, the Potency was inconclusive [cytotoxic, partial curve, poor fit]. With `Cc1ccc(-c2nnc(NC3CCCC3)s2)cc1` the Potency was “inactive”.
